Test results published in the supplement of paper PMC3334620.
Whole data set: some 33,000 sequences, median “E-score (-0.5 to 0.5)” near -0.054, cut for the highest 2% near 0.35. The list shows a part of the results.

Target: T1, Stb5 (UniProt P38699)
T1 sequence: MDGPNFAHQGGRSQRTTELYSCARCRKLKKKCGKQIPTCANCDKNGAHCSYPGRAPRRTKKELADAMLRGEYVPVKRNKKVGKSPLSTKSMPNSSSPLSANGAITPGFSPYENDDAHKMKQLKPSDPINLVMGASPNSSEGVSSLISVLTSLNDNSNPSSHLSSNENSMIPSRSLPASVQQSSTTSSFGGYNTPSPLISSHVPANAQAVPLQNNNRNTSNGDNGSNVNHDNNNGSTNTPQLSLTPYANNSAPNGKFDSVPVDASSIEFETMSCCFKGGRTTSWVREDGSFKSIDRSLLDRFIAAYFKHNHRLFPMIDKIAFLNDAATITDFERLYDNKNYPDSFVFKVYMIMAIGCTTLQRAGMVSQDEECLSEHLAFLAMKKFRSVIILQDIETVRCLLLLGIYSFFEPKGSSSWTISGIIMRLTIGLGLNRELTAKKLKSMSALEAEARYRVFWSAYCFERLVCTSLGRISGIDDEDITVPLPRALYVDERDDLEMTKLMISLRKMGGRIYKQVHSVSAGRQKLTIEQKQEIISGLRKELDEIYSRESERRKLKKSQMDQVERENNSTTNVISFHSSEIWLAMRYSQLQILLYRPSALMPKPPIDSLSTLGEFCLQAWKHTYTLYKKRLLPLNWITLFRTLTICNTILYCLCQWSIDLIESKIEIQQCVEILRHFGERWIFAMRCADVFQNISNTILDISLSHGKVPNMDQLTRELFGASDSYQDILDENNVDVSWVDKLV
Assay: PBM E-score (8-mer binding enrichment) (E-score (-0.5 to 0.5)); higher = stronger / more preferred TF binding; most listed sequences are background and not binding sites
Conditions: protein concentration: 200 nM; construct: GST-full length
How it was run: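 For each ungapped eight-base word taken together with its reverse complement, the Universal PBM Analysis Suite assigned an E-score. Binding data came from GST-tagged yeast transcription factors, applied at about 100-200 nM, on universal all-10-mer Agilent arrays made double-stranded by primer extension. Fluorescent anti-GST marked bound protein, and scans were normalised with masliner.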

Sequence	PBM E-score
ACGTAAGC	-0.117
AACGGAGT	0.378
ACGACGAC	-0.0926
CAGTGCGC	-0.135
ATGTGTAA	-0.0845
GCTCGTCC	-0.131
GAACATCA	-0.0947
AGGCTATG	-0.315
GAGTTAAC	-0.0773
CCAGGCGC	-0.0205
CGTGATTA	0.107
CTGGAACC	-0.175
AGTCAGAT	-0.0492
AACCAGCT	-0.363
CTTAACGC	-0.0225
ACCCCAGG	-0.186
CGTTGACC	0.012
CAGCTGGC	-0.0326
CCAATGGA	-0.129
GAAGCATC	-0.123
AAGGAACG	0.0058
ATCATACG	0.00538
AGCCGCCG	0.215
AACACCTG	0.179
ATACTGAA	-0.141

Sequence	PBM E-score
CATACTGG	-0.062
GTTCTGTA	-0.123
ATACGAGC	-0.0505
AGAACATA	0.195
ACTTCAGG	0.0129
TTCCCAAA	-0.154
CAACGCCA	-0.196
CATGCTGA	-0.188
GCCCTATA	0.12
ATCCGGCC	0.255
CTTGACAC	-0.0634
ACGTGCGC	0.116
TAAAAAGA	0.046
ACATTATG	-0.0318
AGGTGTGC	-0.316
AGCCTTAG	-0.304
GATTGAAA	0.0395
CCTCAGAG	-0.148
CCCGTGCA	0.209
TACGCGCA	-0.0683
AATACTCA	-0.0587
ACGACAGT	-0.193
GTCCCAGA	-0.213
CGAACATC	0.105
AGTCTGGC	-0.236

Sequence	PBM E-score
AAGGCTGG	-0.463
CCCAAAAG	-0.069
CTCACGAC	-0.179
AGTGGAGA	-0.16
ATAGGGGG	-0.286
ATAGTGGC	0.144
GCTTATAA	0.0966
ACCGCAGA	0.138
TCTCGAGA	-0.143
AGATCAAT	-0.106
AGGTCTAT	-0.21
CGACGCTA	0.0289
CTATATGC	-0.00858
CCGATAAG	0.199
GATCTAGC	-0.12
AATTTGAA	0.0577
AGCCGAGG	-0.00403
CTAGTATC	-0.0731
ACATGTTA	-0.173
AACATACT	-0.157
TAACACCA	0.279
CATAAGCA	-0.0101
AGACAATC	-0.137
AAAGCTCA	-0.28
CTTAACAA	-0.0444

Sequence	PBM E-score
GAAACCCA	0.0284
AGTCCCGG	0.331
ATCTGTTG	-0.254
TGAGACCA	-0.326
CACGTTAA	-0.156
AGCTGCGG	0.277
GCGCTATA	0.099
ACAGATCG	-0.083
CTGCACGC	-0.228
AAGCCTAG	-0.229
CTAGGACC	0.116
AGTAGAGA	-0.0933
CCCGACAA	0.328
CTCGGTAC	0.183
TACCGGAA	0.262
CCCGCGTA	0.155
ACAATGGG	0.00938
GCGCTCAC	-0.187
AGTATAAA	0.149
CGTCTGTA	-0.0187
AGGATGAA	-0.147
ATGGGCAC	-0.112
GAGCGGGC	0.289
CATTTGAC	-0.0118
GTAGGACA	0.0831

Sequence	PBM E-score
CCGACGGA	0.394
ACGGCAAT	0.377
CTTGAGCA	-0.221
CAGGCTCG	-0.038
TCACGTGA	-0.139
CTAACTAC	-0.0905
GTCCCAAA	-0.0253
GCGACTCA	-0.156
GGAACAAA	0.0003
GAAAATTA	-0.0554
ACCAGGAC	-0.0538
ACAAGAAA	0.00862
AGAATGAG	-0.276
AGGCGAGA	-0.34
CGTAGGAC	0.103
CCTTTCTA	-0.0388
GACACAAA	0.0997
CTCGTGCA	-0.111
CGGAATCC	0.0455
CGCGATAC	0.0359
AATCCATA	-0.132
GCTTACTA	-0.111
ACAACGGG	0.152
CCACGTCG	0.0285
AGAATCAC	0.128

Sequence	PBM E-score
CCAGGCTA	-0.123
CGACTAGA	0.0592
ACTCACCG	0.202
GAACGGAC	0.331
AAGCATTG	-0.262
GTGGAGCA	-0.144
AACAAGTG	-0.125
AAGGGTAC	-0.197
AGCCTTAA	-0.0403
AGGAGATC	-0.188
AATCTTCA	-0.128
AGGAAGCC	-0.14
CGACCCAC	0.12
CAGCACTA	-0.218
AGTATTCC	-0.088
GCTCCGAA	0.238
ACACTGAT	-0.286
GTGTTTGA	-0.0362
GGAGCCGA	0.114
CCCAGTTC	-0.104
AAGTATTG	-0.0823
TATTTGCA	-0.229
TGTCCACA	-0.18
CAAAGTCA	-0.141
AGATGCAC	-0.0793

Sequence	PBM E-score
CTATTCGA	-0.103
CTTGCCGC	0.149
GAAGCTTC	0.00696
GGTTAGCA	0.00475
CCGAGGTA	0.0379
GGCATCCA	-0.158
GAATTCAA	-0.0423
AAAAATGC	0.154
ATTACACC	0.327
CTACGCAC	-0.128
CGTTACAC	0.115
GCGTTTCA	-0.0705
ACTGAAAG	0.0167
GGTGTCCA	0.0299
CCAGCGTA	0.0135
CCCTTGGA	-0.154
AATCCGCG	0.21
CGATCGAA	0.0626
ATGGCGCA	0.0395
ACTATTTA	0.0538
AGCCGGGG	0.165
CACATAGC	0.0703
CCTACCCG	-0.0479
GAGTAGTA	-0.126
CCAGTACC	0.00859

Sequence	PBM E-score
AGCTATGC	-0.217
CAATGGCA	0.022
CATCTGAC	-0.135
CTACTTAC	-0.238
AACTATCC	0.0181
AATTCTGT	-0.095
GGTGGGAC	0.0449
AACAATTA	0.0355
GCCGAACC	0.176
CAAACCTA	-0.179
AGCATTCC	-0.12
CAACATAG	-0.0327
CTTTTTTA	-0.116
TTACCGAA	0.187
ACCTACTA	0.0486
ACTGTGAG	-0.139
GCTTACCA	0.0405
CTATCACA	0.0614
TGATATCA	-0.0315
ATAGGATC	0.0278
ATTATGCG	0.063
GCGAACAA	-0.182
CCGGGGTA	0.268
CCAGGGGG	-0.22
ACTGGCCC	-0.129

Sequence	PBM E-score
AATGTGGG	0.0435
AAGAGACA	-0.258
ACCGCCCA	0.33
AACAGGGC	-0.081
GCGTCTCA	-0.0552
AACCAAAG	-0.258
CCACGGCC	0.176
CTCAAATC	-0.136
CGTTTGGA	-0.118
CTTTGGCC	0.0132
TAACCGGA	0.271
CACTACAC	-0.13
AAGCTGCG	-0.0216
CGGGCATA	0.419
AATGAGAC	-0.1
TCAACCAA	-0.16
GTGGTTCA	-0.13
ACCTTGAT	0.0356
TGATGTAA	0.0351
